Assay results taken from PubChem BioAssay AID463173 (ICCB-Longwood Screening Facility, Harvard Medical School, 2010).
The campaign covered roughly 52,000 compounds. About 4,300 (8.3%) were called active. Cut-off read from the data, not from the text of the source: active = survival mostly below about 52% (no sharp cut-off); inactive = mostly above about 56%. The list shows a part of the results.

Each molecule was assayed on DeltatarO mutant (assay: S. aureus survival, RN4220 and DeltatarO strains – OD600, teichoic acid synthesis inhibitors, primary screen (AID 463173)). Details: S. aureus RN4220 wild type/DeltatarO growth, OD600, 18 h, hits give low values, screened at 18.75 µg/mL (by protocol).

SMILES | survival
CSc1ccc(C2c3c(oc4cc(C)cc(C)c4c3=O)C(=O)N2CCO)cc1 (stereo not drawn) | inactive: 67%
COC(=O)c1cn(C(C)C(=O)NCc2ccco2)c2ccccc12 (stereo not drawn) | inactive: 91%
Cc1nc2sc(C(=O)N(C)c3ccccc3)c(NC(=O)c3ccccc3Cl)c2c(C)c1C | inactive: 57%
O=C(COC(=O)c1ccccn1)Nc1ccccc1 | inactive: 101%
CN(C(=O)Cn1cc(S(=O)(=O)N2CCN(c3ccccc3F)CC2)c2ccccc2c1=O)c1ccc(Cl)cc1 | inactive: 94%
COCC(C)NC(=O)c1cnn2c(C(F)F)cc(-c3ccccc3)nc12 (stereo not drawn) | inactive: 74%
O=C(NCCCN1CCN(c2ccccc2F)CC1)c1cc2c(Cl)nc3ccccc3c2s1 | active: 51%
Cc1cc(C)c(NC(=O)CN2c3ccccc3S(=O)(=O)c3ccccc32)c(C)c1 | inactive: 106%
Cc1nnc(SCc2ccccc2Cl)c2cc3sccc3n12 | inactive: 100%
O=C(Nc1sc2c(c1C(=O)Nc1ccc(Cl)cc1)CCCC2)c1cccs1 | inactive: 159%
CCCCCOc1ccc(NC(=O)Cc2csc(C)n2)cc1 | inactive: 44%
Cc1ccc(C(=O)Nc2ccccc2C(=O)O)cc1S(=O)(=O)N1CCCCCC1 | inactive: 92%
CC(=O)c1ccc(NC(=O)c2cc(-c3ccc4c(c3)OCO4)on2)cc1 | inactive: 67%
CCc1ccc(-c2nc(CN3CCCC(C(=O)NCc4ccc(C)cc4)C3)c(C)o2)cc1 (stereo not drawn) | inactive: 73%
COC(=O)C(Cc1c[nH]c2ccccc12)NC(C)=O (stereo not drawn) | inactive: 92%
CCn1cc2nc(SCC(=O)Nc3ccccc3F)n(Cc3ccc(C)cc3)c(=O)c2n1 | inactive: 99%
COc1ccc(-c2cc3nc(C)c(CCC(=O)Nc4cccc(C(F)(F)F)c4)c(C)n3n2)c(OC)c1 | inactive: 92%
Cc1ccc(CNC(=O)Nc2cn(CC(C)C)c(=O)c3ccccc23)cc1 | inactive: 73%
Cc1ccnc(NC(=O)c2c(C)oc3ncn(CC(C)C)c(=O)c23)c1 | inactive: 92%
Cc1ccc2[nH]c(C(=O)Nc3ccccc3)cc2c1 | inactive: 60%

SMILES | survival
CCOc1cc(C2NC(=O)c3c(sc4c3CCN(C)C4)N2)ccc1OC(=O)c1ccccc1Cl (stereo not drawn) | inactive: 146%
COc1ccc(-c2[nH]c(-c3ccccc3)nc2SCC(=O)Nc2ccc3c(c2)OCCO3)cc1 | inactive: 54%
CN1CCN(CCCNC(=O)Cn2c(-c3cccs3)cc3cc(Cl)ccc32)CC1 | inactive: 99%
Cc1ccc(CN2COc3cc(C)c4c(oc(=O)c5ccccc54)c3C2)cc1 | inactive: 65%
CCOc1ccc(NC(=O)c2cnn(-c3ccc(C)c(Cl)c3)c2C2CCNCC2)cc1 | inactive: 70%
COc1cc(OC)c(NC(=O)C(NS(=O)(=O)c2cccc3nsnc23)c2ccccc2)cc1Cl (stereo not drawn) | inactive: 60%
COCCNc1oc(-c2ccc(COc3ccc(OC)cc3)o2)nc1C#N | inactive: 79%
Cc1ccc(NC(=O)CSc2nc3ccccc3c3nc(CCc4c(C)n[nH]c4C)nn23)c(C)c1 | inactive: 99%
Cc1ccc(-c2nn(-c3ccc(F)cc3F)c3c2cnc2c(F)cccc23)cc1 | inactive: 73%
CCOC(=O)c1cnc2c(ccc3ccccc32)c1Nc1ccccc1OC | active: 28%
Cc1ccc(S(=O)(=O)CCC(=O)Nc2ccc(Br)cc2C)cc1 | inactive: 85%
CC1(C)CC(NC(=O)CCc2ccccc2)CC(C)(C)N1 | inactive: 102%
O=C(NC1CC(=O)N(c2ccc3c(c2)OCCO3)C1)c1c(F)cccc1Cl (stereo not drawn) | inactive: 98%
Nc1cccc(C(=O)NC23CC4CC(CC(C4)C2)C3)c1 | inactive: 95%
COc1ccc(-c2noc(CSc3nnc(Cc4ccccc4)n3-c3ccccc3)n2)cc1OC | inactive: 98%
CCOC(=O)c1cc(-c2ccccc2)n(CC(=O)NC2CCC(C)CC2)c1C (stereo not drawn) | inactive: 92%
CCOC(=O)c1cnc2ccccc2c1NCC(C)O (stereo not drawn) | inactive: 89%
CCCCOc1ccc(CNC(=O)c2ccc(-c3nc(CN4CCc5ccccc54)c(C)o3)cc2)cc1 | inactive: 101%
COc1ccc2[nH]c(=O)c(CN(Cc3ccco3)C(c3nnnn3Cc3ccccc3)C(C)C)cc2c1 (stereo not drawn) | inactive: 64%
COc1cccc(NC(=O)c2sc3nc4n(c(=O)c3c2C)CCC4)c1 | inactive: 92%

SMILES | survival
CCc1ccc2oc(-c3cccc(NC(=O)c4cc5ccccc5o4)c3)nc2c1 | active: 14%
Cc1ccccc1C(=O)Nc1nc2nc(C)c(C)c(=O)n2[nH]1 | inactive: 92%
CCCc1nn2c(=O)cc(COC(=O)c3ccc(NC(=O)CCc4ccccc4)cc3)nc2s1 | inactive: 69%
Cc1nc2c(C(=O)O)cnn2c(C)c1Cc1ccccc1 | inactive: 81%
Cc1ccc(C(=O)CSc2ncc3c(n2)-c2ccccc2N(Cc2ccc(Cl)cc2)S3(=O)=O)cc1 | inactive: 115%
Cc1ccc2nc(N3CCN(c4cccc(Cl)c4)CC3)c3nnnn3c2c1 | inactive: 88%
Cn1c(SCC(=O)N2CCCc3ccccc32)ncc(C(=O)Nc2ccc(Cl)cc2)c1=O | inactive: 94%
COc1cccc(CN(Cc2ccco2)c2cnc(S(C)(=O)=O)nc2C(=O)Nc2cccc(Cl)c2C)c1 | active: 47%
CCOc1ccccc1-c1nc(=S)[nH][nH]1 | inactive: 79%
Cc1cc2cc(CN(Cc3ccco3)C(c3nnnn3C3CCCC3)C(C)C)c(=O)[nH]c2cc1C (stereo not drawn) | inactive: 107%
CCc1nc2nc(C)cc(Nc3ccc(OC)cc3)n2n1 | inactive: 68%
CCn1nnnc1SCC(=O)NC1CCCC1 | inactive: 65%
COc1ccc(S(=O)(=O)N2CCCC(C(=O)N(Cc3cccs3)C3CC3)C2)cc1Cl (stereo not drawn) | inactive: 79%
O=S(=O)(NCCSc1nnnn1-c1ccccc1)c1ccc(F)cc1 | inactive: 76%
Cc1ccc(-c2onc(C)c2C)cc1S(=O)(=O)NCc1ccco1 | inactive: 87%
COc1cccc(OCCCCn2c(-c3ccc(Cl)cc3)nc3ccccc3c2=O)c1 | inactive: 62%
O=C(c1cccc([N+](=O)[O-])c1)N1c2ncnn2C2(CCCCC2)[C@@H]2CCCC[C@@H]21 | inactive: 85%
CC(=O)Nc1ccc(S(=O)(=O)NC2(C(F)(F)F)NC(=O)N(c3ccc(C)cc3)C2=O)cc1 (stereo not drawn) | inactive: 83%
